Experimental data: PubChem BioAssay AID504339 (National Center for Advancing Translational Sciences (NCATS), 2011)
Hit rate of the full screen: of about 390,000 compounds, about 17,000 (4.4%) were called active. The inconclusive results got no clear call from the source; some entries with a clear call stand among them for comparison. The call rests on the fitted dose curve; in most records, active means well fitted inhibition curve with a large enough effect; inconclusive means small, poorly fitted or top-dose-only effect; inactive means no such curve, though single readings can be large or run the other way. Potencies beside an inconclusive call are fits to weak or partial responses and may not hold up.

Molecular target: Lysine-specific demethylase 4A (Homo sapiens) (UniProt O75164)
Assay: qHTS Assay for Inhibitors of JMJD2A-Tudor Domain; further: nearly all actives have a fitted effect of over 50% in size
Details: AlphaScreen JMJD2A-Tudor / H3K4me3 peptide binding; activity change, negative = inhibition: at 114 µM (top of the series)
On the % scale 0 is the no-effect control and ±100 the full control effect; potency means the concentration at half of the fitted maximal effect; tags describe the fitted curve by direction and shape.

UniProt O75164, sequence (O75164 whole entry, looked up, the tested form may be a part): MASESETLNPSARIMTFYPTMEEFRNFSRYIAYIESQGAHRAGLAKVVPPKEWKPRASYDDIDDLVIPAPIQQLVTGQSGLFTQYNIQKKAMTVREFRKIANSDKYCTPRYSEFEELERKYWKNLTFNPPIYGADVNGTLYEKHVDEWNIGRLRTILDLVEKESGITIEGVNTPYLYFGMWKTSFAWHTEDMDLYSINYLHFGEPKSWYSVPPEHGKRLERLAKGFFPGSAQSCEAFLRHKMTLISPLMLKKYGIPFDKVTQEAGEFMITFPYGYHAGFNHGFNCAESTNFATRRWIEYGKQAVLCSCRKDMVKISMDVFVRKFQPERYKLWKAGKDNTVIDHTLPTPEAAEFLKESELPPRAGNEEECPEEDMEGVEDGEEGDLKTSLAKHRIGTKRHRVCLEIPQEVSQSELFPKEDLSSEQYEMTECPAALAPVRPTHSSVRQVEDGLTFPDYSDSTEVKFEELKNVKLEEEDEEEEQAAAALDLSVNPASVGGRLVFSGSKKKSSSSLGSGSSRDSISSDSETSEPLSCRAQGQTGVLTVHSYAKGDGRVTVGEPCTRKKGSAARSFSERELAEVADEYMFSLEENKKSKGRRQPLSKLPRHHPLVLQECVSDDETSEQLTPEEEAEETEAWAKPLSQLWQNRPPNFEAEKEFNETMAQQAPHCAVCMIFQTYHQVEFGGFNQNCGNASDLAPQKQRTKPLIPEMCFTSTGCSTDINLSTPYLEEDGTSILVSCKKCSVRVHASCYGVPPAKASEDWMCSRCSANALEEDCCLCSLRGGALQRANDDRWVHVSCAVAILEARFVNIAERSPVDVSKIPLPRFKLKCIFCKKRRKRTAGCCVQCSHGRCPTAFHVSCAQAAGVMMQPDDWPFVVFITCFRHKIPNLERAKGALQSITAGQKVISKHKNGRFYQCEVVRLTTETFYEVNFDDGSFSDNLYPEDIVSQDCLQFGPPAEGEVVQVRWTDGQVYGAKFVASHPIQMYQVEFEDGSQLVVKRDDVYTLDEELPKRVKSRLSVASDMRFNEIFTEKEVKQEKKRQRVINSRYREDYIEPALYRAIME

Compound | Potency | activity change, negative = inhibition
Cc1cc(N/N=C/c2ccc(O)cc2)nc(NS(=O)(=O)c2ccccc2)n1 | active: 56.2 µM | –
CN(C)c1ccc(-c2nnc(-c3ccccc3F)o2)cc1 | – | inactive: 8.64%
O=C(O)c1n[nH]c2c1CCCC2 | active: 25.1 µM | –
Cc1ccc(Cl)cc1NC(=O)N[C@@H](C)C(=O)O | inconclusive: 89.1 µM [inhibitor, partial curve] | –
COc1cccc(CNC(=O)c2[nH]c3cc(C)ccc3c2Sc2ccccc2)c1 | inconclusive: 56.2 µM [inhibitor, partial curve] | –
CN1C(=O)C(=O)/C(=C(/O)c2ccc(Br)cc2)C1c1ccccc1F (stereo not given) | inconclusive: 50.1 µM [inhibitor, partial curve] | –
O=C(Nc1ccc(OC(F)F)cc1)c1ccccn1 | inconclusive: 22.4 µM [inhibitor, full curve, poor fit] | –
CCOC(=O)c1cccc(-n2nnc3c(sc4nc(C)c(Br)c(C)c43)c2=O)c1 | inconclusive: 100 µM [inhibitor, single point] | –
CCCC(=O)Nc1ccc(NC(=O)CCc2ccccc2)cn1 | inconclusive: 4.47 µM [inhibitor, single point] | –
Cc1ccc(NC(=O)COc2cccc(-n3cnnn3)c2)cc1S(=O)(=O)N1CCOCC1 | – | inactive: -13.2%
CC(C)[C@H](NC(=O)c1ccc(C(C)(C)C)cc1)C(=O)N1CCN(Cc2ccc3c(c2)OCO3)CC1 | inconclusive: 14.1 µM [inhibitor, full curve] | –
Brc1ccc([C@H]2CN3CCSC3=N2)cc1 | active: 6.31 µM | –
CC(C)=C[C@H]1C[C@H](C)[C@H]2CC[C@H](C)c3c(O[C@@H]4OC[C@@H](O)[C@H](O)C4O)c(O)c(C)c1c32 (stereo not given in full) | inconclusive: 50.1 µM [inhibitor, partial curve] | –
CCN1CCN(Cc2ccc(NC(=O)c3ccc(C)c(NC(=O)c4csc(-c5ccncc5)n4)c3)cc2C(F)(F)F)CC1 | inconclusive: 39.8 µM [inhibitor, partial curve] | –
CCN(CC)C(=O)C1CCN(CC2CC=CCC2)CC1 (stereo not given) | active: 6.31 µM | –
CC(=O)Nc1ccc(S[C@@H](CCN2CC[C@H](C(C)(C)C)CCC2=O)c2ccccc2)cc1 | – | inactive: -35.2%
COc1cc(/C=N/Nc2nc(C)nc3c2cnn3-c2ccccc2)ccc1O | – | inactive: -12.4%
CCOC(=O)C1CCCN(Cc2ccccc2OCC)C1 (stereo not given) | active: 5.62 µM | –
COc1cccc(-n2ccnc2SCC(=O)Nc2cc(OC)ccc2OC)c1 | active: 89.1 µM | –
CCOC(=O)C1CCCN(C(=O)c2cc(S(=O)(=O)N(C)C)ccc2N2CCCC2)C1 (stereo not given) | – | inactive: -6.56%
